From the supplement of paper PMC3334620
Whole data set: some 33,000 sequences, median “E-score (-0.5 to 0.5)” near -0.013, cut for the highest 2% near 0.3. This is one part of the list.

What follows are sequences tested against T1, Msn1 (UniProt P22148) (assay: PBM E-score (8-mer binding enrichment) (E-score (-0.5 to 0.5)); higher = stronger / more preferred TF binding; most listed sequences are background and not binding sites). Details: protein concentration: 200 nM; construct: GST-full length.
T1 sequence: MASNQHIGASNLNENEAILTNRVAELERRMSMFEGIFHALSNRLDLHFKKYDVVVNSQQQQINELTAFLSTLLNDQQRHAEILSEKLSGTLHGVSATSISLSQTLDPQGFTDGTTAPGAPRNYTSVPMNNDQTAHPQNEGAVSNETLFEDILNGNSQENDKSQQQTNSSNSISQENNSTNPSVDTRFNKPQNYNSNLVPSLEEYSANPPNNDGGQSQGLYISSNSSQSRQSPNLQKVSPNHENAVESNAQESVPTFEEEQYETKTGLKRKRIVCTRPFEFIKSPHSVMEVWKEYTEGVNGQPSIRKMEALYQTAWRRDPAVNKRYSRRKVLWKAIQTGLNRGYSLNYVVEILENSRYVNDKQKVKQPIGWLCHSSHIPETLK
Outline: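 Masliner-normalised scans of fluorescent anti-GST signal were the basis for scoring. That signal came from GST-tagged yeast transcription factors applied at about 100-200 nM to double-stranded universal all-10-mer Agilent arrays on fresh or once-stripped slides. Each ungapped eight-base word, pooled with its reverse complement, received an E-score from the Universal PBM Analysis Suite.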

Sequence | PBM E-score
AGTAGAAA | 0.176
TACACACA | 0.0752
CTAACAAA | 0.141
GTGCATGA | 0.0762
CGTCGATC | -0.0653
CTCATCGC | -0.0785
ACCATAGA | -0.0272
AACCAGTA | 0.0688
GTAACAAC | 0.103
AAGTCTTA | 0.183
GGCGTGCA | -0.255
GCTAACAA | -0.0553
AAACTGAT | 0.0852
CTCAGTTC | -0.0161
GCCTACCA | -0.174
CACACCTG | -0.201
ATAATGAG | 0.134
AGGCACGG | -0.0786
ATCTGTCG | 0.0829
CCATGCTA | -0.215
ATCCCTTA | -0.0284
TCTTCAAA | 0.125
AGATTGAT | -0.156
GCATAGTA | 0.032
AAGACGTG | 0.0634

Sequence | PBM E-score
CATGTTGA | 0.17
GCCGTCTA | -0.147
CGCACTCC | -0.162
AATTTTTC | 0.153
ACCCGAAT | 0.0463
CTGATAAC | 0.0212
ATCTAAAA | 0.0306
AACGGACA | 0.344
AGGCGTAC | -0.0847
ACGGAGCC | -0.0946
CCTAATGC | -0.156
ACTGACTG | -0.124
TAATACTA | 0.265
ATCCGCAC | -0.0511
CCATAAAG | -0.162
AGACGCAT | 0.00572
ATCTTGCC | 0.0575
GGATACAC | -0.185
CACAATCA | -0.0148
ACCTCGGC | 0.053
ACAGTGCC | 0.063
ACTTGTAG | 0.0691
GACTTAGC | -0.135
TCCTCGAA | -0.00304
GAAAATTC | 0.116

Sequence | PBM E-score
CGTAAGGC | -0.147
CTAGTTTC | 0.151
GAACCGCC | -0.0164
TCCCCGGA | -0.0783
CGTTCGCC | -0.0525
CAGGGGAA | -0.176
CTACACCC | -0.145
CGGTCGCC | -0.118
GCGGCCAC | -0.316
TCGCACCA | -0.0732
CGCACGGA | 0.0118
GAGATTAC | -0.189
GACGAAGA | -0.00478
ATAATTGA | 0.266
TAGTGCGA | 0.055
CCCTCGCG | -0.0601
TAGCTTGA | -0.246
CGTGTAAC | -0.0578
ATCCCTCC | -0.103
ACCACACT | 0.0253
TTACCCAA | 0.0979
CGGTATCC | -0.224
CTGAGGGC | -0.258
ATAAATAT | 0.277
ATAGGAGG | -0.228

Sequence | PBM E-score
TGGAATAA | -0.0907
AGTGAGAA | 0.00917
GCTCGCTA | -0.0896
AGTACCAT | 0.0374
AGCGCGCG | 0.138
AATTCACT | 0.0912
ATCCTCAC | -0.0537
ATTGAAGA | 0.0927
ACAGTCCT | -0.0913
AAACCTCG | -0.0494
CAGACATG | 0.26
AGCTACCC | -0.122
ATTATGCC | 0.0513
ACAACCGA | 0.0724
CGACCGTC | -0.159
AACGAGCT | -0.0712
AAACCTTC | -0.288
CCTCAGCG | -0.05
GATTGTTA | 0.0224
CCAGTAGC | -0.0202
ATGAACTG | 0.0956
AGTGGAAG | -0.369
CCCGACTC | -0.0419
CGATCCGA | 0.131
CTGCGCAA | 0.137

Sequence | PBM E-score
CAAAACAC | 0.0974
TAACTACA | 0.132
CACCCTCC | -0.293
CTGTATGA | 0.0183
ACGTAGAG | -0.164
ACCATTCT | -0.0554
GACAGGAA | 0.323
CACCCTGA | -0.196
ACTCCCAC | -0.319
GATGGCCA | 0.00559
GTGCGTTA | 0.084
TGATACAA | 0.123
GTCAACGA | 0.0877
CGACCTGC | -0.131
CGATGTGC | -0.0598
CAGTGTGA | -0.0287
ATCAAGAA | 0.0962
AGTATCCA | 0.0161
ACCCCTAT | -0.242
AAGATGAA | -0.00389
ATGCCTAG | -0.0824
CAACCTCC | -0.288
TGATTACA | 0.125
AGCTACTG | -0.095
TAACGCCA | -0.162

Sequence | PBM E-score
AATAAAGT | 0.209
AGAGAATG | 0.186
GCTATGCC | -0.262
CCCTGCTA | -0.2
TCTATCAA | 0.0807
CGTGTGGC | -0.0764
AGTCATGG | 0.00853
ACTACCAG | -0.271
CTCACACC | -0.206
ATGTCCTC | 0.481
CATTGGTA | 0.122
CGCCTATC | -0.0603
GCTCTTGA | -0.0882
ATCGCCAA | -0.0861
GGGTCGCA | -0.107
ACCATGCG | 0.0418
CGCATCCG | -0.0959
AGATTTGC | 0.0653
ATCCATTA | 0.0133
ATACATCG | 0.157
AACGCATG | -0.0312
ACGACTAG | 0.1
CACGACGC | -0.166
CATGGCGC | -0.0795
ACGGGGCG | -0.0524

Sequence | PBM E-score
CGCCCGCC | -0.158
ATACAATC | -0.0273
AAACTCCA | -0.129
AACAAGTT | 0.0509
AGTGCAGA | -0.0866
AAAACCGC | -0.0566
AGTACAGC | -0.0323
AGGTCGTA | -0.0523
ACTCCTCA | -0.338
GAGTGCCC | -0.195
GGTTCACA | -0.0395
GGCATACA | -0.09
CCCAGAGC | -0.294
ACAGTCAC | -0.0889
TAAGTTGA | 0.0771
ACTTCCCT | -0.185
CAGGCGTA | -0.0831
TAAGCGCA | -0.0951
ACCAATGG | -0.0826
CACCCACC | -0.157
CCCCAGAA | -0.235
ATCCGCGA | 0.023
